Laboratory results from PubChem BioAssay AID1159614 (National Center for Advancing Translational Sciences (NCATS), 2016).
In all, about 45,000 compounds went through this assay and about 65 (0.1%) were called active. The call rests on the fitted dose curve; in most records, active means well fitted activation curve with a large enough effect; inconclusive means small, poorly fitted or top-dose-only effect; inactive means no such curve, though single readings can be large or run the other way. The list shows a part of the results.

target: Galactocerebrosidase (Homo sapiens) (UniProt P54803); assay: A Novel Cell-Based Assay to Identify Small Molecules for B -Galactocerebrosidase; conditions: 145M-Twi-hGALC-G270D cells, HMU-beta-Gal fluorescence, 48 h; series mostly up to 57.5 µM; activation: at the top concentration; further: 0% is about no effect; nearly all actives have a fitted effect of over 65% in size
Outline: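 qHTS, 1536-well; 145M-Twi-hGALC-G270D cells (WT line also made) in DMEM/F12 + 10% FBS; compound incubation on live cells; HMU-β-gal 0.1 mM final, pH 5.2, NaTC; carbonate stop; fluorescence increase = enhanced residual activity.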

Chain of UniProt P54803 (P54803 whole entry, looked up): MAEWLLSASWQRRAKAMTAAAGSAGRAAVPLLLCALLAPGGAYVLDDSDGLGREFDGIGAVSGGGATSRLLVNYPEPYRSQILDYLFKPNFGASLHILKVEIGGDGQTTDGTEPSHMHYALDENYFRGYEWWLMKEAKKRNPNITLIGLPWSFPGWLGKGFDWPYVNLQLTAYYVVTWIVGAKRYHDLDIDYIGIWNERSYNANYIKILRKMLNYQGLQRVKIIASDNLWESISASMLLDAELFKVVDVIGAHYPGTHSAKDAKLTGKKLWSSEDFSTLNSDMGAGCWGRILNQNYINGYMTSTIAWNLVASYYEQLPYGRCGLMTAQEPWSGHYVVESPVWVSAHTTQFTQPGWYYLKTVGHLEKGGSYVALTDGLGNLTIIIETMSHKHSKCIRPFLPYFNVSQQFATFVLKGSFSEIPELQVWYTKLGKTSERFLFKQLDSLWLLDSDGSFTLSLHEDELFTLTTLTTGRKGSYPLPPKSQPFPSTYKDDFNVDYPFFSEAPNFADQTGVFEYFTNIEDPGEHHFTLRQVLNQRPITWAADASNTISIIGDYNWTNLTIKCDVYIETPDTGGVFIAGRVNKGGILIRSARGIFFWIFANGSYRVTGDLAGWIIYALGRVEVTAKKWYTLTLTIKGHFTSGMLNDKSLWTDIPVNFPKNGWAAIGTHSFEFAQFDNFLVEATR

activation, inactive:
Cc1cccc(-c2nc3c4ccccc4nc(NCc4ccc(F)cc4)n3n2)c1 -7.24%
O=C1Nc2ccc(Cl)cc2[C@@](C#CC2CC2)(C(F)(F)F)O1 -11.4%
CCOC(=O)c1c(S(=O)(=O)NCC(=O)NCc2ccccc2)c(C)n(C)c1C -4.55%
Cc1ncc(CO)c(CN)c1O -10.1%
COc1ccc(NC(=O)C(NC(=O)/C=C\c2ccc3c(c2)OCO3)c2ccccc2)cc1 (centres undefined) -6.92%
Cc1ccc2c(c1)N(CCCC(=O)NCc1cccc(F)c1)C(=O)CO2 1.21%
CSc1ncc(C(=O)N2CCN(c3cccc(C(F)(F)F)c3)CC2)c(C)n1 2.15%
O=C(c1ccccc1)c1ccccc1 -13.2%
COc1cccc(-n2c(=O)c3sc4ccccc4c3n(CC(=O)Nc3ccccc3C)c2=O)c1 -20.1%
CCCN(CCC)CCCNC(=O)c1cc2c(=O)[nH]c3ccccc3c2n1C -18%
COc1ccc(C2N3CC4(C)CN2CC(c2ccccc2)(C3)C4=O)cc1OC (centres undefined) -7.77%
COc1ccc(C2CC(=O)c3cc(-c4nc(-c5cccc([N+](=O)[O-])c5)cs4)c(=O)n(-c4ccc(OC)cc4)c3C2)cc1 (centres undefined) -12%
O=C(CSc1c2c(nc3cc(Cl)ccc13)CCCC2)NCc1ccccc1Cl -13.4%
Cc1ccc(NC(=O)C2CCN(S(=O)(=O)c3cc(-c4noc(C)n4)ccc3C)CC2)c(C)c1 -1.56%
CC(CNC(=O)CCS(=O)(=O)c1cc2c(cc1Cl)NC(=O)CO2)c1ccccc1 (centres undefined) -11.1%
CCOC(=O)c1ccccc1NC(=O)CCc1nc(-c2ccc(C)cc2)no1 -24.9%
O=C1c2ccccc2-c2onc3c(NCCO)cc(NC4CCCCC4)c1c23 -7%
COc1ccc(C(CNC(=O)COc2cc(C)cc(C)c2)N2CCOCC2)cc1 (centres undefined) -4.62%
Cc1c(C(=O)Nc2ccc(F)cc2F)sc2nc3n(c(=O)c12)N=C(c1ccccc1)CS3 -12%
CC(Sc1oc(-c2cccs2)nc1S(=O)(=O)c1ccccc1)c1ccccc1 (centres undefined) -9.82%
Cn1nccc1C(=O)NCc1ccc2c(c1)CCN2C(=O)c1ccc(Cl)cc1 -16%
CCc1ccc(Oc2c(C(F)(F)F)oc3c(CN4CCCC(C)C4)c(O)ccc3c2=O)cc1 (centres undefined) -12%
COc1ccc(N2CCN(c3csc4ccccc4c3=O)CC2)cc1 -8.1%
CCc1ccc(NC(=O)c2nn(-c3ccc(OC)cc3)c(=O)c3c2c2ccccc2n3C)cc1 -1.39%
CCCCOc1ccc(Cn2c(=O)sc3ccccc32)cc1 -6.82%
O=C(Nc1cccc(NC(=O)c2ccccc2Cl)c1)c1cccc(Br)c1 -34.6%
C=C(C)C(=O)OCC(O)CO (centres undefined) -15.3%
CCc1ccccc1NC(=O)C1CCCN(c2cnccn2)C1 (centres undefined) -14.5%
Cc1ccc(NC(=O)CSc2nc(=O)cc(N)n2CCc2ccccc2)cc1 -15.6%
CCOc1nc2cccc(C(=O)O)c2n1Cc1ccc(-c2ccccc2-c2nn[nH]n2)cc1 13.1%
COc1ccc(NC(=O)CCCN2C(=O)COc3ccc(C)cc32)cc1OC -5.67%
COc1cc(-c2cc(OC)c3c(C)oc(C)c3c(=O)c2)ccc1OC(=O)c1cccc(Cl)c1 5.13%
CCOC(=O)c1ccc(NC(=O)c2nn(C)c3c2COc2ccccc2-3)cc1 -10.6%
Cc1ccc(S(=O)(=O)c2nnn3c2nc(NCc2ccccc2Cl)c2sccc23)cc1 -11%
CC(C)c1ccc(OCc2cc(=O)n3c(-c4ccccc4)csc3n2)cc1 -25.9%
CCOC(=O)c1c(NC(=O)CSc2cn(CCNC(=O)c3ccccc3F)c3ccccc23)sc2c1CCCC2 9.6%
CCCCN1CCCC[C@H]1C(=O)Nc1c(C)cccc1C -9.62%
O=C(Cn1c(=O)n(-c2ccc(Cl)cc2)c(=O)c2c3c(sc21)CCC3)c1ccccc1 -19.4%
COCCCNC(=O)c1ccc2c(c1)NC(=O)C(C(C)C)N2 (centres undefined) -0.304%
CC(C)(C)OC(=O)N1CCC(c2c(C(=O)N3CCN(C(=O)c4ccco4)CC3)cnn2-c2ccccc2Cl)CC1 -9.48%
COc1ccc(CCN2C(=O)CN(C3CCC(C)CC3)C(=O)C2c2ccc(OC(C)C)c(OC)c2)cc1OC (centres undefined) -15.3%
Cc1ccccc1C(=O)c1cccn1CC(=O)NCc1cccc(Cl)c1 -13.3%
CC(C)(C)NC(=O)c1oc2ccccc2c1NC(=O)c1ccc(F)cc1 -18.7%
Cn1c(SCc2ccccc2F)nc2c([nH]c3ccccc32)c1=O -2.11%
CCc1nn(CCCC(=O)NC(C)c2ccccc2)c(=O)c2cc3occc3n12 (centres undefined) -10.7%
CCCCNC(=O)C(CC)Sc1nc2ccccc2c(=O)n1CCc1ccc(OC)c(OC)c1 (centres undefined) -2.46%
Cc1ccc(Cn2cc(CCC(=O)NCc3ccc(OC(C)C)cc3)c3ccccc32)cc1 -8.74%
COCCN(CCOC)c1ncnc2c1c(-c1ccccc1)cn2-c1ccc(C)c(Cl)c1 -3.78%
CCn1c2ccccc2c2cc(CN3CCN(Cc4ccccc4C)CC3)ccc21 -2.71%
COc1ccc(C)cc1NC(=O)c1ccc2c(c1)nnn2C1CCCC1 6.09%
COc1ccccc1C(=O)Nc1ccc(OCc2cc(=O)n3cc(C)sc3n2)cc1 -15.5%
Cc1ccc(NC(=O)Cn2c(=O)n(Cc3ccc4c(c3)OCO4)c(=O)c3ccc(C(=O)NC4CCCCC4)cc32)c(C)c1 -21.4%
CCc1ccc(NC(=O)Cn2c(-c3cncs3)nc3ccccc32)cc1 -9.4%
c1ccc(OCCn2c(COc3ccccc3)nc3ccccc32)cc1 -4.76%
O=C1c2oc3ccccc3c(=O)c2C(c2cccc(Cl)c2)N1c1ccccn1 (centres undefined) -14%
Cc1ccc2[nH]c(=O)c3cc(C(=O)NCCc4ccc(Cl)cc4)sc3c2c1 -17.6%
O=C(c1ccc2c(c1)N(Cc1cccc(Cl)c1)C(=O)c1ccccc1S2)N1CCOCC1 -7.45%
Cc1cc2nc(-c3ccc(OCc4ccccc4)cc3)cc(C(F)(F)F)n2n1 -6.62%
CCc1ccc(NC(=O)c2cnc3sc(N4CCCC4)nn3c2=O)cc1 0.0045%
CN1CCN(C(CNC(=O)C(=O)Nc2cccc(Cl)c2)c2ccc3c(c2)OCO3)CC1 (centres undefined) -13.2%
O=C(Cn1c(=O)c2cccn2c2cccnc21)NCc1ccccc1F -1.84%
CC1=C(C(=O)Nc2ccc(C)cc2C)C(c2ccccc2F)n2nc(SCC(=O)c3ccc(C)cc3)nc2N1 (centres undefined) -14.9%
O=C(Nc1ccc(S(=O)(=O)N2CCCCCC2)cc1)c1cc(=O)c2ccccc2o1 -9.89%
Cc1cc(-n2c(C)nc3ccccc3c2=O)ccc1NC(=O)c1ccc([N+](=O)[O-])cc1 -14.8%
COc1ccccc1NC(=O)C1CCC(CNS(=O)(=O)c2ccc3c(c2)CC(C)N3C(C)=O)CC1 (centres undefined) -12.3%
Cc1ccc(-c2nn3c(=O)cc(CN4CCN(C(=O)Nc5cc(Cl)ccc5C)CC4)nc3s2)cc1 -0.537%
Cc1cc(C)cc(OCC(=O)N(Cc2ccc(C)o2)C2CCS(=O)(=O)C2)c1 (centres undefined) -15.2%
CCOC(=O)c1c(C)sc(-c2c(-c3ccc(OC)c(F)c3)[nH]c3c2c(=O)[nH]c(=O)n3C)c1O -14.3%
Clc1ccc(C(c2ccccc2Cl)C(Cl)Cl)cc1 (centres undefined) -16.7%
CC(C)Oc1ccc(CNC(=O)c2ccc3nc(Cc4ccccc4)oc3c2)cc1 -15.1%
CCC(CC)C(=O)Nc1ccc2nc(SCC(=O)N3c4ccccc4CC3C)sc2c1 (centres undefined) -15.7%
COc1cccc(N(CC(=O)N2CCC(C)CC2)S(=O)(=O)c2ccc(C)cc2)c1 19.2%
COCCNC(=O)c1cc2c(Cl)nc3ccc(C)cc3c2s1 -6%
Cc1ccc(CN(Cc2ccco2)C(=O)c2oc3c(C)c(C)ccc3c2C)cc1 -12.8%
COc1ccc(Cl)cc1NC(=O)c1c(NCc2ccc(C)o2)sc2c1CCCC2 -10.6%
CCC(C)NC(=O)CSc1nc2cc3c(cc2c(=O)n1CCCC(=O)NCc1ccc2c(c1)OCO2)OCO3 (centres undefined) -11.8%
CN(C)c1ccc(C(=C2C=CC(=[N+](C)C)C=C2)c2ccccc2)cc1 -9.49%
COc1cc(OC)c(Nc2ncnc3onc(-c4cccc(Cl)c4)c23)cc1Cl -0.0376%
CC(C)c1ccc(Nc2ncnc3c2c(-c2ccccc2)cn3-c2ccccc2)cc1 -13.9%
COc1ccccc1CNC(=O)Cn1nc(C)c2nn(-c3ccc(Cl)cc3)c(C)c2c1=O -21%
Cc1cc(C)cc(NC(=O)C2(c3cccs3)CCOCC2)c1 -9.5%
CCc1ccc(NC(=O)CSc2nnc(-c3cc4occc4n3C)n2-c2ccccc2C)cc1 -14.8%
Clc1ccccc1Cc1cn2cc(-c3ccccc3)nc2s1 8.71%
O=C1O[C@H]([C@@H](O)CO)C(O)=C1O -14.6%
CCCCOc1ccc(C2=NC(c3ccccc3)=Nc3ccc(OC)cc3N2)cc1 -12%
Cn1c(=O)c2c(-c3ccccc3Br)n(CCc3ccccc3)cc2n(C)c1=O -23.1%
C=CCc1c(C)nc2nc(SCC(=O)Nc3ccc(OCC)cc3)nn2c1C -8.3%
COc1cccc(CNC(=O)Cn2ccc3cc(S(=O)(=O)N4CCC(C)CC4)ccc32)c1 -10.5%
COc1ccccc1NC(=O)CSc1nnc2c3ccccc3n(C)c2n1 -15.5%
CC(C)COc1ccccc1C1CC(=O)Nc2cc3c(cc21)OCO3 (centres undefined) -43%
Clc1cccc(-n2ncc3c(N4CCN(Cc5ccccc5)CC4)ncnc32)c1 -4.56%
COc1ccccc1Nc1ncnc2c1nc1n2CCCC1 -13.4%
Cc1ccc(-n2nc(C)c3c(C(=O)Nc4ccc(Br)c(C)c4)cc(C)nc32)cc1 -10.2%
COc1ccc(NC(=O)Cn2ccn(-c3ccccc3)c(=O)c2=O)cc1 -8.02%
Cc1ccc(-c2nc3cccnc3s2)cc1NC(=O)Cc1ccccc1 -7.61%
COc1ccc(CCC(=O)NCc2ccc3c(c2)CCN3C(=O)c2ccc(C)cc2)cc1 -11.6%
COc1cccc(-c2nc(SCC(=O)N3CCc4ccccc43)c3c(=O)n(C)c(=O)n(C)c3n2)c1 -7.03%
CCOCCCn1c(=N)c(C(=O)NCC2CCCO2)cc2c(=O)n3cc(C)ccc3nc21 (centres undefined) -12.1%
COC(=O)C1=C(C)NC(=O)C1(NC(=O)c1ccccc1C)C(F)(F)F (centres undefined) 2.68%
